The target in one assay is T1, CD4-HA (human, UniProt P01730).
T1 construct: full-length, tagged; partner tested in the NCR1-FLAG co-IP
The assay is described as follows: co-immunoprecipitation from co-transfected cells, IP anti-FLAG, western blot.

For assay [1], the target named is T2, SIGLEC7 expressed on cells (human, UniProt Q9Y286 19-467).
T2 construct: whole, on cells; C-terminally tagged in the co-IP; also called SIGLEC7-HA
The assay is described as follows: cell surface interaction assay: streptavidin-tetramerized biotinylated ECD on transfected cells, immunofluorescence. From the text:
(§1) FIG. 3H is a schematic showing the design of the cell surface interaction assay.

The target of assay [2] is T3, SIGLEC6 expressed on cells (human, UniProt O43699 27-453).
T3 construct: whole, on cells
The description is as above.
Source text: as §1

Assay [3] deals with T4, SIGLEC8 expressed on cells (human, UniProt Q9NYZ4 17-499).
T4 construct: whole, on cells; C-terminally tagged in the co-IP; also called SIGLEC8-HA
Described as above.
Source text: as §1

T4 sequence (Q9NYZ4 17-499): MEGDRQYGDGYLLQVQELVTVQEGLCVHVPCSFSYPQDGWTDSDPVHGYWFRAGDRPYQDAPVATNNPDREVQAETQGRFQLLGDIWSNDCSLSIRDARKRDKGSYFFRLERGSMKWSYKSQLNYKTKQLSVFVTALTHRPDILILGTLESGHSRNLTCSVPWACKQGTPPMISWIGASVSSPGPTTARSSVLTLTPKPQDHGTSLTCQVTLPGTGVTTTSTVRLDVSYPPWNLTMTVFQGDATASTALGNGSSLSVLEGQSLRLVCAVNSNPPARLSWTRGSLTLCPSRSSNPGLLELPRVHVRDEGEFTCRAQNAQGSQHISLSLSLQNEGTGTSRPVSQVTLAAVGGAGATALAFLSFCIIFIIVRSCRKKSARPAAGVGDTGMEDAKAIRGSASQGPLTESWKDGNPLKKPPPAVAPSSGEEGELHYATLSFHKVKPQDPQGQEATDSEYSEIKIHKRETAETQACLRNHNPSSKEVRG
T3 sequence (O43699 27-453): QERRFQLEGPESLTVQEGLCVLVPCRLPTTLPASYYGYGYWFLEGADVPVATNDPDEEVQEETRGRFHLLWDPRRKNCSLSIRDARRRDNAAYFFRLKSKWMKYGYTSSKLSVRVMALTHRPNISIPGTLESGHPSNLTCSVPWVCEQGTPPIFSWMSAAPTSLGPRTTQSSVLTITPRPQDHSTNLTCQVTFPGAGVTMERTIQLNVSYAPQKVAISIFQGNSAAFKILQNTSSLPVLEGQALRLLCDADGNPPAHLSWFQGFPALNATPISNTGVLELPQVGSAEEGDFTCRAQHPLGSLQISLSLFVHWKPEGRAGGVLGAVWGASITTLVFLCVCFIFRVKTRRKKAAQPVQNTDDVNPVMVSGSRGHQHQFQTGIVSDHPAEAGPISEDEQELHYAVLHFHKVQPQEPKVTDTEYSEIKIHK
T2 sequence (Q9Y286 19-467): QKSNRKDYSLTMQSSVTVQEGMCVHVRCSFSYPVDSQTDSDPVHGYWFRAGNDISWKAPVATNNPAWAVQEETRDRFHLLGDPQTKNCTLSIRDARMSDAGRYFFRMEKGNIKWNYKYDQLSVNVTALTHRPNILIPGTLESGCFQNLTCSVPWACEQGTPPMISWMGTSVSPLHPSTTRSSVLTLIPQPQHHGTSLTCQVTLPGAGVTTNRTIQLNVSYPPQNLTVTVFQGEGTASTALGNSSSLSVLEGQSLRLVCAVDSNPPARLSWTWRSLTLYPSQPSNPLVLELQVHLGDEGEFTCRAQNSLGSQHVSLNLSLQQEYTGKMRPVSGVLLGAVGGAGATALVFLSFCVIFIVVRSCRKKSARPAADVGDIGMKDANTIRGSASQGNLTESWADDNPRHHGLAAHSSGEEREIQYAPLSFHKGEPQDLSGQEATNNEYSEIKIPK

B1: NCR1 full-length (co-IP) (receptor, human, UniProt O76036 22-304, looked up)
chain: QQQTLPKPFIWAEPHFMVPKEKQVTICCQGNYGAVEYQLHFEGSLFAVDRPKPPERINKVQFYIPDMNSRMAGQYSCIYRVGELWSEPSNLLDLVVTEMYDTPTLSVHPGPEVISGEKVTFYCRLDTATSMFLLLKEGRSSHVQRGYGKVQAEFPLGPVTTAHRGTYRCFGSYNNHAWSFPSEPVKLLVTGDIENTSLAPEDPTFPADTWGTYLLTTETGLQKDHALWDHTAQNLLRMGLAFLVLVALVWFLVEDWLSRKRTRERASRASTWEGRRRLNTQTL
notes: whole, on cells; also called NCR1-FLAG
In the case of B1, in the assay with CD4-HA, the binding result was “no binding”.

B2: NCR1 extracellular domain (receptor, human, UniProt O76036 22-258, looked up)
chain: QQQTLPKPFIWAEPHFMVPKEKQVTICCQGNYGAVEYQLHFEGSLFAVDRPKPPERINKVQFYIPDMNSRMAGQYSCIYRVGELWSEPSNLLDLVVTEMYDTPTLSVHPGPEVISGEKVTFYCRLDTATSMFLLLKEGRSSHVQRGYGKVQAEFPLGPVTTAHRGTYRCFGSYNNHAWSFPSEPVKLLVTGDIENTSLAPEDPTFPADTWGTYLLTTETGLQKDHALWDHTAQNLLR
notes: extracellular domain; Soluble query, biotinylated and tetramerized with fluorescent streptavidin
As to B2, the binding result in assay [1], in assay [2] and in assay [3] was “binds” each time.

For the origin of these results see patent US20220119490A1 (Genentech, published 2022).
